# In paper PMC6919601, “Identification of Plasmodium dipeptidyl aminopeptidase allosteric inhibitors by high throughput screening” (PLoS ONE, 2019):
# Out of some 110,000 compounds screened, about 230 (0.21%) showed an effect of 50% or more. The list shows a part of the results.
# Biological target: DPAP1 (Plasmodium falciparum, UniProt Q8IIJ9)
# Assay: primary screen, percent inhibition; read by cleavage of a fluorogenic dipeptide substrate; higher = more effect of the substance
# Parameters: species or system P. falciparum D10 trophozoite lysates; single well
# 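Further: 30 min substrate incubation versus DMSO and 10 µM JCP410 controls.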
# Sequence of DPAP1 (Q8IIJ9 whole entry, looked up): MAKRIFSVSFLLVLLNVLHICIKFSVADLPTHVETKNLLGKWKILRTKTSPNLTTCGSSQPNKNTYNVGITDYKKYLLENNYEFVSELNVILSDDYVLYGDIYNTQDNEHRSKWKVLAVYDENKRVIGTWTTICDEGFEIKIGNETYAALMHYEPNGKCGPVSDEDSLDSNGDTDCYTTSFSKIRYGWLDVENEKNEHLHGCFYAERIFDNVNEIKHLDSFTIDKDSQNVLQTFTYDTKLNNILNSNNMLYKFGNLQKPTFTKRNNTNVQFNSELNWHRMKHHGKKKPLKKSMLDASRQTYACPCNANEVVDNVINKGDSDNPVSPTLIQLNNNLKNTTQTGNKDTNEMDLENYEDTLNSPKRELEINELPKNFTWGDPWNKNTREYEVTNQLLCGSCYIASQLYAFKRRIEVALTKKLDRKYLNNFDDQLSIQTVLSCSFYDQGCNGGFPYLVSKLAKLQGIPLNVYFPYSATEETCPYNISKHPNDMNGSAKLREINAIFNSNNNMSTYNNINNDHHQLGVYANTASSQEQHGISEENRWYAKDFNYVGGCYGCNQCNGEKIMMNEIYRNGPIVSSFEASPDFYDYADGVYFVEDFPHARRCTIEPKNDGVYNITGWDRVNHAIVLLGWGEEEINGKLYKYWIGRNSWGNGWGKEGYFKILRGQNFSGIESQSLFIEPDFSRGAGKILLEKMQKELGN
row,Compound,% Inhibition @ 10 uM [%]
1,CC(C(=O)N(Cc1ccccc1)Cc1ccccc1)N1C(=O)c2ccccc2C1=O (stereo not drawn),2.26
2,CCOCCO/C(O)=C1\C(C)=NC2=C(C(=O)CC(C)(C)C2)C1c1cccc(Cl)c1Cl (stereo not drawn),-4.77
3,Cc1ccc(NC(=O)/C=C/c2ccccc2Cl)c(C)c1,-0.351
4,Cc1ccc(N2N=C(c3ccccc3)CC2c2ccccc2)cc1 (stereo not drawn),-5.11
5,CCOC(=O)C1=C(C)NC(=O)NC1c1ccc(-c2cc(C(F)(F)F)ccc2Cl)o1 (stereo not drawn),-6.68
6,O=C(NCCn1ccc2ccccc21)c1ccc(C(F)(F)F)cc1,-7.51
7,CCN(CC)CCNC(=O)C1=C(C)C(=O)OC12CCCCC2,-1.89
8,Cc1ccc(S(=O)(=O)N2CC=C(C(=O)NCCC3=CCCCC3)CC2)cc1,1.27
9,CC1=C(C(=O)N2CCC(N3CCCCC3)CC2)C2(CCCCC2)OC1=O,0.745
10,COCCNC(=O)c1ccc(-c2ccccc2)s1,-0.447
11,CCc1ccccc1NC(=O)C(CC)Oc1ccccc1 (stereo not drawn),5.31
12,O=c1c2ccccc2ncn1Cc1ccccc1,3.99
13,COc1cc(C(=O)Nc2ccc(-c3nc4ncccc4o3)cc2)cc(OC)c1OC,0.992
14,Cc1nc(C)c(-c2csc(Nc3ncccn3)n2)s1,-0.711
15,CCOc1cc(C2C3=C(CCCC3=O)OC3=C2C(=O)CCC3)cc(Br)c1O,4.03
16,CCOCc1c(SC)sc(SC)c1COCC,-0.0372
17,COc1ccc(CNc2nc(-c3cccnc3)nn2C(=O)COc2ccc(Cl)cc2)cc1,-1.15
18,CCOc1ccc(/C=C2\CN(C(C)C)CC3=C2OC(N)=C(C#N)C3c2ccc(OCC)cc2)cc1 (stereo not drawn),0.746
19,O=C(NC1CCCC1)c1cnn2c(C(F)(F)F)cc(-c3ccc(Br)cc3)nc12,-3.13
20,Cc1nc2cc(Cl)ccc2n1Cc1ccccc1,3.16
21,CCOC(=O)c1c(NC(C)=O)[nH]c2ccc(OC)cc12,1.02
22,COc1cccc(C2CC(c3cccs3)=NN2c2ccc(F)cc2)c1OC (stereo not drawn),0.219
23,Cc1ccc(N2CNC(=O)c3c(C)cc(C)nc32)cc1,0.528
24,Cc1ccc(-n2nc(C)c3c2OC(N)=C(C#N)C3c2ccccc2F)cc1 (stereo not drawn),-4.4
25,Cc1ccc(C)n1-c1nnc(N2CCC(C(=O)NCC3CCCO3)CC2)s1 (stereo not drawn),1.15
26,COc1ccc2c(c1)CCc1c(C(=O)N3CCN(Cc4ccccc4)CC3)noc1-2,-5.09

row,Compound,% Inhibition @ 10 uM [%]
1,O=C(Nc1nc(-c2ccc3ccccc3c2)cs1)C1CC1,-0.46
2,Cc1nc2sc(-c3nc4ccccc4[nH]3)c(N)c2c(C)c1Cl,-0.891
3,CCC(C)NC(=O)c1cnn2c(C(F)(F)F)cc(-c3ccc(F)cc3)nc12 (stereo not drawn),4.11
4,CCn1c(CN2CCCCC2C)nc2c1c(=O)n(C)c(=O)n2C (stereo not drawn),-0.719
5,CO/C(O)=C1\C(C)=NC(C)=C(C(=O)OCCSc2ccccc2)C1C (stereo not drawn),-2.42
6,CCC(Oc1ccccc1)C(=O)Nc1nnc(S(=O)(=O)N2CCOCC2)s1 (stereo not drawn),4.86
7,O=C1CC(c2cccc(F)c2)c2c(O)nc3ccccc3c2O1 (stereo not drawn),0.895
8,Cc1ccc(CCNC(=O)CN2N=C(c3ccccc3)CCC2=O)cc1,-1.21
9,Nc1nc2ccccc2n1CCCOc1ccc(F)cc1,-2.91
10,Clc1ccc(-c2nc(-c3cccnc3)no2)cc1Cl,-3.06
11,COc1ccc(C2C3CCc4ccc(OC)cc4C3=NN2C(C)=O)cc1 (stereo not drawn),-3.55
12,CC1(C(=O)O)CCC(c2nc3ccccc3[nH]2)C1(C)C (stereo not drawn),4.42
13,CC(C)(C)OC(=O)N[C@@H](Cc1ccc(-c2ccccc2)s1)C(=O)NCC#N,6.03
14,CCOc1ccc(N2C(=O)CC(NC3CCC(C)CC3)C2=O)cc1 (stereo not drawn),0.749
15,CC1(C)Cc2c(C#N)c(NCCN3CCOCC3)nc(-c3ccco3)c2CO1,-3.13
16,Cc1ccc(CN(C)S(=O)(=O)c2c(C)noc2/C=C/N(C)C)cc1,3.07
17,Cn1cc([N+](=O)[O-])c(C(=O)Nc2ccc(Cl)cc2Cl)n1,2.17
18,CN(c1ccc(C(=O)Nc2cccnc2)cc1)S(C)(=O)=O,-1.51
19,COc1ccc(CCNC(=O)C2CCC(Cn3c(=O)[nH]c4ccsc4c3=O)CC2)cc1OC (stereo not drawn),2.64
20,COc1cccc2c1OC(C(C)C)N1N=C(c3ccccc3O)CC21 (stereo not drawn),4.97
21,CC1=C(C(=O)OCCOc2ccccc2)C(c2ccc(Cl)c(Cl)c2)NC(=O)N1 (stereo not drawn),-2.87
22,Cc1ccc(Cn2c(C(=O)O)c(CNCCC3=CCCCC3)c3ccc(C)cc32)cc1,2.33
23,CS(=O)(=O)N1CCC(C(=O)Nc2ccc(Cl)cc2Cl)CC1,-2.21
24,CCCS(=O)(=O)N1CCC(C(=O)Nc2ccc(Br)cc2)CC1,-14
25,CCNc1nc2nc(O)c3c(c2s1)OC(N)=C(C#N)C3c1cccs1 (stereo not drawn),-2.83
